These results are taken from article PMC4336329 (PLoS ONE, 2015).

The whole screen tested about 310,000 compounds, of which about 14,000 (4.5%) showed an effect of 50% or more. The effect is printed as a negative number. The list shows a part of the results.
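Note: peak tail current of the secondary pulse compared with the same well before compound.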

Sequence of human ether-à-go-go-related gene (hERG) potassium channel (Q12809 whole entry, looked up): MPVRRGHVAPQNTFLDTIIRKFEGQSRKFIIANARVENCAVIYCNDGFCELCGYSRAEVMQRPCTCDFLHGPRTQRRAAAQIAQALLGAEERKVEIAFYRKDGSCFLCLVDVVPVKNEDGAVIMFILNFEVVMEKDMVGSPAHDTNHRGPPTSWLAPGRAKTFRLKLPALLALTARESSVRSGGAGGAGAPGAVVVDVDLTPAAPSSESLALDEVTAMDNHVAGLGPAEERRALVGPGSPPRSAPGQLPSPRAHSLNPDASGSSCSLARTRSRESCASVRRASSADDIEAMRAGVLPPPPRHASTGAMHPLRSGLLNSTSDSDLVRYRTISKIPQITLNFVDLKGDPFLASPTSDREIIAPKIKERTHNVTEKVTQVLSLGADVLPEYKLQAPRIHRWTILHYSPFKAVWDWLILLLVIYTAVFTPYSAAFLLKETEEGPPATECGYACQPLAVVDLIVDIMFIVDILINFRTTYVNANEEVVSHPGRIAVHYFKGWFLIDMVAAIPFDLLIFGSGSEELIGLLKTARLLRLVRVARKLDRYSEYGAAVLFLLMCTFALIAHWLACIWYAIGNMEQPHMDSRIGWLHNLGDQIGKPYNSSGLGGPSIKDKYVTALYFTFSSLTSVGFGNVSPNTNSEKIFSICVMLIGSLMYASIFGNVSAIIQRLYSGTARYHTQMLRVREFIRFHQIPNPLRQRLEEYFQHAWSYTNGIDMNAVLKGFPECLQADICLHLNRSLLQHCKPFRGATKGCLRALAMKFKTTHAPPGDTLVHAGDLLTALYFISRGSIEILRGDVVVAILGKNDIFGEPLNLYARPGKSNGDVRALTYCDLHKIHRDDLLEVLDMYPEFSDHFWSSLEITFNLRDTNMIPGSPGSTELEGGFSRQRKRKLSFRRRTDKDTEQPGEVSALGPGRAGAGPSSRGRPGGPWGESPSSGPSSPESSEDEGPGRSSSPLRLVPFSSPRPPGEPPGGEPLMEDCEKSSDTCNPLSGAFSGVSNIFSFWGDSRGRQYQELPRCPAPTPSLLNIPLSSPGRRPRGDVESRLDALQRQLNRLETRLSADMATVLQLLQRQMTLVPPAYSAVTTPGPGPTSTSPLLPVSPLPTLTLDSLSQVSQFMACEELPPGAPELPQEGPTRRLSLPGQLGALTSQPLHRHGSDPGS

The assay has as its target human ether-à-go-go-related gene (hERG) potassium channel (human, UniProt Q12809). Nature of the assay: primary screen, population patch clamp on CHO cells stably expressing hERG.
Take `CCOC(=O)COc1ccc2ccccc2c1/C=C/[N+](=O)[O-]`: the “hERG current change (%, negative = inhibition) at 10uM” value was -0.943%.
In the case of `CC(=O)N(C)c1ccc(NS(=O)(=O)c2cccc3nsnc23)cc1`, the “hERG current change (%, negative = inhibition) at 10uM” value is 17%.
For `COc1ccc(NC(=O)N2CCC(Cc3ccccc3)CC2)cc1`, the “hERG current change (%, negative = inhibition) at 10uM” value is recorded as -3.45%.
The result for `Cc1ccc(OCC(=O)Nc2ccc(NC(=O)c3ccccc3)cc2)cc1C` reads 19%; that for `O=C(NCC(c1cccnc1)N1CCN(c2ccc(F)cc2)CC1)c1ccccc1` (stereo not drawn), -40.2%; that for `Cc1[nH]c(=O)[nH]c(=O)c1/C=N/NC(=O)CCNC(=O)OC(C)(C)C`, -4.36%.
Turning to `NC(=O)C1CCN(C(=O)CCn2c(=O)oc3ccccc32)CC1`, the “hERG current change (%, negative = inhibition) at 10uM” value is 0.894%.
As for `O=C(COC(=O)/C=C/c1cccc(Cl)c1)NC(=O)NCc1ccccc1`, the “hERG current change (%, negative = inhibition) at 10uM” value was -11.7%.
Turning to `CCC(c1nnc(SCC(=O)Nc2ccc(C(=O)N(C)C)cc2)n1Cc1ccccc1)N(C)C` (stereo not drawn), the “hERG current change (%, negative = inhibition) at 10uM” value is 1.55%.
For `COc1cc(OC)cc(OCC(O)Cn2ccnc2C)c1` (stereo not drawn), the “hERG current change (%, negative = inhibition) at 10uM” value was -0.281%.
For `COc1ccc(/C=N/Nc2c(Cl)cc(Cl)cc2Cl)cc1CN1CCOCC1`, the “hERG current change (%, negative = inhibition) at 10uM” value is on record as -3.48%.
As for `CC1(C)O[C@@H]2[C@H](O1)[C@@H](CO)O[C@H]2n1cnc2c(N)ncnc21`, the “hERG current change (%, negative = inhibition) at 10uM” value is recorded as 12.3%.
Then `Cc1ccc(C(=O)COc2nc(C)cc(C)c2C#N)cc1`, with -7.95%; and `Cc1ccc(-c2cc(C(=O)NCc3cccs3)no2)cc1`, with 9.41%; and `COc1cccc(/C=N/NC(=O)c2cc(-c3cccn3C)n[nH]2)c1O`, with -3.54%.
With `CCc1cc(-c2n[nH]c(C)c2Oc2ccc(C(C)C)cc2)c(O)cc1O`, the “hERG current change (%, negative = inhibition) at 10uM” value is -0.439%.
Regarding `Cc1cccc(NC2=NC(=S)N(c3ccc(C(=O)O)cc3)C23CCCCC3)c1`, the “hERG current change (%, negative = inhibition) at 10uM” value stood at 17.5%.
Regarding `COC(=O)C(Cc1ccc(OC(=O)c2ccc(Cl)cc2)cc1)N1Cc2ccccc2C1=O` (stereo not drawn), the “hERG current change (%, negative = inhibition) at 10uM” value was found to be 7.39%.
For the molecule `CCOc1ccc2nc(SCC(=O)N(C)C)[nH]c2c1`, the “hERG current change (%, negative = inhibition) at 10uM” value came to 11.4%.
In the case of `Cc1nn(C)cc1CNC(=O)C1(C)CC1(Cl)Cl` (stereo not drawn), the “hERG current change (%, negative = inhibition) at 10uM” value is recorded as 19.6%.
Take `COc1ccc(CCNS(=O)(=O)c2ccccc2)cc1OC`: the “hERG current change (%, negative = inhibition) at 10uM” value is 10.6%.
For the molecule `COc1ccc(CCN2C(=O)C3C4CC(C5C(C(N)=O)=NOC45)C3C2=O)cc1OC` (stereo not drawn), the “hERG current change (%, negative = inhibition) at 10uM” value is -2.12%.
Consider `COc1ccc(CCn2c(=N)c(C(=O)NC3CCCC3)cc3c(=O)n4ccccc4nc32)cc1OC`, for which the “hERG current change (%, negative = inhibition) at 10uM” value is -79.2%.
As to `CS(=O)(=O)C1=C(O)C(=O)N(CCCC(=O)O)C1c1ccccc1F` (stereo not drawn), the “hERG current change (%, negative = inhibition) at 10uM” value worked out at 10.7%.
